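These data come from cells grown in 96-well plates and exposed to compound for 48 hours at five concentrations. GI50 = concentration required for 50% inhibition of growth.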 The source made the active and inactive calls. Cut-off read from the data, not from the text of the source: active = GI50 up to about 1.1 µM and inactive = higher.
Each compound was assayed on NCI-H322M (assay: NCI anticancer screen, dose series, 48 h).

Compound	GI50
Cc1ccc(S(=O)(=O)NC(=O)NCCc2ccc(O)c(O)c2)cc1	inactive: > 100 µM
Cc1ccc([S@+]([O-])c2occc2C=O)cc1	inactive: 15.8 µM
O=C(CC1(O)C(=O)Nc2c(Cl)cc(Cl)cc21)c1ccc2ccccc2c1 (stereo unspecified)	inactive: 13.2 µM
O=C1Nc2ccccc2S/C1=C\c1ccccc1C(F)(F)F	inactive: > 100 µM
CCN(CC(COc1ccc2c(c1)[n+]([O-])nc(N)[n+]2[O-])OC(C)=O)C(C)=O (stereo unspecified)	inactive: 80.7 µM
Cc1ccc(NC(=S)C#N)c(C)c1	inactive: > 100 µM
O=C(Nc1c(O)[nH]c(=S)[nH]c1=O)c1ccc2ccccc2n1	inactive: > 100 µM
CCN1CCN(c2nc3ccccc3nc2C(=O)c2ccc(OC)cc2)CC1	inactive: 40.9 µM
Cc1cccc(NC(=O)O/N=C(\Cl)C(C)C)c1	inactive: 16.7 µM
CCOC(=O)c1nc2ccccc2n(CC)c1=O	inactive: > 100 µM
CCCCCC(=O)Cc1cc(OC)cc2c1C(=O)Oc1cc(O)c(C(=O)O)c(CC(=O)CCCCC)c1O2	inactive: 54.2 µM
CO[C@H](C(=O)O[C@H]1C(=O)N2CC[C@@H]3CCC[C@H]1C32C)c1ccccc1 (stereo partly specified)	inactive: > 100 µM
C=C(C)C(=O)O[C@H]1CC2=CC(CC(C)=C[C@H]3OC(=O)C(=C)C13)OC2=O (stereo partly specified)	inactive: > 100 µM
CCNc1nnc(-c2nsc3ccccc23)s1	inactive: 20.2 µM
Cc1nc(N)nc(N)c1CCCc1ccccc1	inactive: 29 µM
CCn1cc(C(=O)O)c(=O)c2cc(F)c(N3CCNCC3)nc21 [ENOXACIN]	inactive: > 100 µM
O=C(c1cccc2ccccc12)N1CCC(C2CCN(C(=O)c3cccc4ccccc34)CC2)CC1	inactive: > 100 µM
CC1(C)C2CCC3(OCCO3)C1C1OC12 (stereo unspecified)	inactive: > 100 µM
CC(=O)NC(CCCCNC(=O)OC(C)(C)C)C(=O)O (stereo unspecified)	inactive: > 100 µM
N/C(=N\O)N/N=C/c1cc2c(cc1Cl)OCO2	inactive: 28.7 µM
CC1=CCC2(C#N)CCC1C2=O (stereo unspecified)	inactive: > 100 µM
Cc1cccc(C)c1NC(=O)C(=O)CC(=O)c1sc(Nc2c(C)cccc2C)nc1C	inactive: > 100 µM
CCc1cccc(C(C)C)c1NC(=O)C(=O)C1C(=O)NC(=O)NC1=O	inactive: > 100 µM

Compound	GI50
Cc1ccc(C(=O)Nc2ccc(CP(=O)(O)O)cc2CP(=O)(O)O)cc1NC(=O)c1cccc(N)c1	inactive: > 100 µM
CC[C@H]1CN(C)[C@H]2Cc3c([nH]c4ccccc34)C(=O)C[C@H]1C2C(=O)OC (stereo partly specified)	inactive: > 100 µM
N#C[C@](CO)(NC(=O)OCc1ccccc1)C(F)F	inactive: > 100 µM
Cc1ccc(/C=C2\CN(C)CC3=C2N=C(S)NC3c2ccc(C)cc2)cc1 (stereo unspecified)	inactive: 56.5 µM
COC(=O)[C@]12CC=C3O[C@@H]4OC5(CCCCC5)O[C@@H]4[C@H]3C1C(=O)C=CC2=O (stereo partly specified)	inactive: 20.9 µM
Cn1c(CO)ccc1-c1ccc(-c2ccc(CO)[se]2)[se]1	inactive: 8.65 µM
COc1ccccc1C1CC(=O)CC(c2ccccc2OC)C12C(=O)NC(=S)NC2=O (stereo unspecified)	inactive: 57.7 µM
O=c1ccn([C@@H]2C[C@H]2CO)c(=O)[nH]1	inactive: > 100 µM
CN(C)CC1CCC/C(=C\c2ccc(OC(=O)/C=C/c3ccc(Cl)c(Cl)c3)cc2)C1=O (stereo unspecified)	inactive: 25.2 µM
Cc1nnc(CC#N)n1NC(=O)CC#N	inactive: > 100 µM
Cc1ccccc1-n1c(=O)c2ncn(C3CCCO3)c2n(-c2ccccc2C)c1=S (stereo unspecified)	inactive: > 100 µM
Cc1cc(NC(=O)C(=O)Cc2nc3ccccc3s2)ccc1Cl	inactive: > 58.5 µM
CCCCn1c(C)c(C(=O)OCC)s/c1=N/Nc1nc2ccccc2nc1-c1ccccc1	inactive: > 100 µM
Cc1nc2ccccc2[nH]/c1=N/Nc1ccccc1	inactive: 25.2 µM
COc1cc(OCc2nc3ccccc3n3cccc23)cc(OC)c1OC	inactive: 42.1 µM
COC/C=C\[C@@]1(O)CCCC[C@@H]1CC(OC)OC	inactive: > 100 µM
Nc1csc(-c2scc3c2OCCO3)c1N	inactive: 32.3 µM
COC(=O)[C@@H]1CC(C(CN)c2cn(C(=O)OC(C)(C)C)c3ccccc23)C(=O)N1C(=O)OC(C)(C)C (stereo partly specified)	inactive: 83.4 µM
CCCOC(=O)c1cc(O)c(O)c(O)c1 [PROPYL GALLATE]	inactive: 54.2 µM
O=[N+]([O-])c1ccc(Nc2cccc3c4cc[nH]c(-c5ccccc5)c-4nc23)c([N+](=O)[O-])c1	inactive: > 100 µM
CC(C)c1nc(Cl)nc(Cl)c1Cl	active: 0.931 µM
COc1ccc(/C=N/n2c(-c3ccccc3)n[nH]c2=O)cc1	inactive: > 100 µM
C=CC1(CCC(Br)C(C)(C)Cl)CO1 (stereo unspecified)	inactive: > 10 µM
